Measured values reported in PubChem BioAssay AID1347073 (National Center for Advancing Translational Sciences (NCATS), 2019).
In all, about 45,000 compounds went through this assay and about 200 (0.44%) were called active. About 7% were inconclusive and are not listed. Calls follow the shape of the dose curve; as a rule, active = well fitted activation curve with a large enough effect; inconclusive = small, poorly fitted or top-dose-only effect; inactive = no such curve, though single readings can be large or run the other way. Some of the results follow.

Experiment: qHTS of TDP-43 Inhibitors: NCGC Sytravon Library Screen; also: 0% is about no effect; nearly all actives have a fitted effect of over 55% in size
Conditions: yeast TDP-43 toxicity rescue, BacTiter-Glo growth, 24 h; series mostly up to 46.1 µM; growth rescue (activation): at the top concentration
Summary of the method: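 TDP-43-expressing yeast, pregrown in raffinose, seeded at OD600 0.02 in galactose medium with compound for 24 hr at 30 deg C. Growth read by BacTiter-Glo luminescence, so rescue of toxicity appears as activation.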

Row | SMILES | growth rescue (activation)
1 | Clc1ccc(NC2=NCCC2)cc1Cl | inactive: 5.79%
2 | Cc1c(COc2ccc3ccccc3c2)nnn1CC(=O)NS(=O)(=O)c1ccccc1C(F)(F)F | inactive: 12.8%
3 | Cc1ccc(C)c(NC(=O)CCCCCCCCCCC2COCCO2)c1 (stereo unspecified) | inactive: 0.864%
4 | CCCCC(OC(=O)c1ccco1)C(=O)NCc1ccc(C)cc1 (stereo unspecified) | inactive: 13.1%
5 | COc1cccc(OCC(O)CN2CCN(CCN3C(=O)c4cccc5cccc(c45)C3=O)CC2)c1 (stereo unspecified) | inactive: -5.07%
6 | O=[N+]([O-])c1c(Nc2cccc(O)c2)cc(Cl)c2nonc12 | inactive: -26.3%
7 | OCCN1CCN(c2ncnc3c2ncn3[C@H]2CN(Cc3ccncc3)C[C@@H](CO)O2)CC1 | inactive: 3.09%
8 | COc1ccc(C(=O)NCCNc2ccc([N+](=O)[O-])cc2)cc1 | inactive: 8.78%
9 | O=C(O)c1ccc(Cl)c(S(=O)(=O)Nc2ccccc2Cc2ccccc2)c1 | inactive: -0.847%
10 | Cc1ccc(C(=O)NC(=S)NCc2cccnc2)c(C)c1 | inactive: 5.93%
11 | CCOC(=O)C(NC(=O)c1cccc(Cl)c1)(Nc1nnc(C)s1)C(F)(F)F (stereo unspecified) | inactive: -2.45%
12 | CC(=O)NS(=O)(=O)c1ccc(NS(=O)(=O)c2ccccc2[N+](=O)[O-])cc1 | inactive: 30%
13 | Cc1cc(C)cc(NC(=O)C2CCN(c3nnc(-n4c(C)ccc4C)s3)CC2)c1 | inactive: 10.4%
14 | Cc1ccccc1NC(=O)C1CCCN(C(=O)Nc2ccc(F)cc2)C1 (stereo unspecified) | inactive: 1.2%
15 | O=C(CCc1ccccc1)Nc1cccc([N+](=O)[O-])c1 | inactive: 5.61%
16 | CCOC(=O)C1CCCN(C(=O)CCNC(=O)Cn2ccc3ccccc3c2=O)C1 (stereo unspecified) | inactive: 17.8%
17 | O=C(O)/C=C/C(=O)N1CCc2ccccc21 | inactive: 19%
18 | CN(C)CCNC(=O)c1ccc2c(=O)n(Cc3ccc(Cl)cc3)c(=S)[nH]c2c1 | inactive: -7.84%
19 | N#CC1=C(SCC(N)=O)NC(=O)CC1c1cccc2ccccc12 (stereo unspecified) | inactive: 7.68%
20 | O=c1cc(CN2CCc3ccccc32)c2ccc(O)cc2o1 | inactive: -7.93%
21 | CC1CN(C(=O)COC(=O)c2ccc(Cl)c(S(=O)(=O)N3CCCCC3)c2)CC(C)O1 (stereo unspecified) | inactive: 9.74%
22 | Cn1nccc1C(=O)Oc1ccc(/C=N/NC(=O)c2ccccc2O)cc1 | inactive: 4.92%

Row | SMILES | growth rescue (activation)
23 | C=CCNC(=S)N/N=C(\C)c1cccc(NC(C)=O)c1 | inactive: -2.63%
24 | Cc1nn(C(C)C(=O)N2CCc3ccccc3C2)c(=O)c2cc3occc3n12 (stereo unspecified) | inactive: -13.8%
25 | CCCc1ccc(C(O)c2ncc(-c3ccc(OC)cc3)[nH]2)cc1 (stereo unspecified) | inactive: 3.52%
26 | COc1ccc(N2C(=O)CS(=O)C(c3ccccc3)C2=O)cc1 (stereo unspecified) | inactive: -1.69%
27 | CC(C)Cc1nc2n[nH]c(N)c2c2c1CCCC2 | inactive: 8.62%
28 | N#Cc1nc(-c2ccccc2F)oc1N1CCN(C(=O)c2ccco2)CC1 | inactive: 10.5%
29 | COc1ccc(N(CC(=O)NC2CC3CCC2C3)S(=O)(=O)c2ccc(C)c([N+](=O)[O-])c2)cc1 (stereo unspecified) | inactive: 10.9%
30 | O=S(=O)(c1ccc(F)cc1)N1CCN(Cc2ccccn2)CC1 | inactive: -4.76%
31 | COc1ccccc1COC(=O)N/C=C/c1ccco1 | inactive: -2.95%
32 | CSCCC(NC(=O)/C(=C\c1ccc(Cl)cc1)NC(=O)c1ccccc1)C(=O)O (stereo unspecified) | inactive: 4%
33 | CCOC(=O)N1CCN(C(=S)NC(=O)c2nn(C)cc2Br)CC1 | inactive: 11.6%
34 | COc1ccc(/C=C2\SC(=S)N(Cc3cccnc3)C2=O)cc1C | inactive: -14.7%
35 | Cc1nnc(SCC(=O)NCC(=O)Nc2ccc(F)c(F)c2F)n1N | inactive: 10.8%
36 | Cc1cccc(N2C(=O)c3cccc4c(N5CCCCC5)c([N+](=O)[O-])cc(c34)C2=O)c1C | inactive: 9.64%
37 | Cc1cc(Br)ccc1S(=O)(=O)n1ccnc1C | inactive: 3.72%
38 | Cn1c(=O)cc(OCC(=O)NCc2cccs2)c2ccccc21 | inactive: 10.5%
39 | CC(C)c1ccccc1NC(=O)C1CN(S(=O)(=O)c2ccccc2)CCN1S(=O)(=O)c1ccccc1 (stereo unspecified) | inactive: 7.96%
40 | Cc1ccc(-c2cn3nc(C)c(C)nc3n2)cc1 | inactive: -9.56%
41 | CCCNC(=O)c1cnc(Sc2ncc(C(F)(F)F)cc2Cl)n1C | inactive: 27.4%
42 | COc1ccc(OC)c(-c2csc(NC(=O)Cc3cc(OC)c(OC)c(OC)c3)n2)c1 | inactive: 9.8%
43 | CCCC(=O)N1CCC1(C)C(=O)Nc1cccc(OC(C)C)c1 (stereo unspecified) | inactive: 1.39%
44 | O=C(CSc1nnc(SCc2ccc(Cl)cc2)s1)N/N=C/c1c(Cl)cccc1Cl | inactive: 1.56%

Row | SMILES | growth rescue (activation)
45 | Cc1oc(-c2cccs2)nc1CN1CC[C@@](O)(c2ccccc2)[C@H]2CCCC[C@@H]21 | inactive: 0.476%
46 | O=C(NC1CCCCC1)C1CCN(c2ncccn2)CC1 | inactive: -0.824%
47 | Cc1ccc(S(=O)(=O)N[C@H](C(=O)OCC(=O)NC(=O)NCc2ccco2)C(C)C)cc1 | inactive: -5.83%
48 | COc1ccc(NC(=O)C(C)N2CCN(C)CC2)cc1 (stereo unspecified) | inactive: 4.55%
49 | CC(C)C[C@H](NC(=O)NC1CCCc2ccccc21)C(=O)O (stereo partly specified) | inactive: 6.43%
50 | Cc1cc(C)nc(NC(=O)CSc2nn(-c3ccccc3)c(=S)s2)n1 | inactive: 5.09%
51 | CC(Sc1ccc(S(=O)(=O)N2CCOCC2)cn1)c1ccccc1Cl (stereo unspecified) | inactive: -10.9%
52 | COc1cc2nc(/C=C/c3cc(OC)c(OC)c(OC)c3)sc2cc1SC | inactive: -0.655%
53 | COC(=O)c1cccc(NC(=O)CCSc2ccc(Cl)cc2)c1C | inactive: 2.15%
54 | N/C(=N\OC(=O)COc1ccc(Cl)cc1Cl)c1cccnc1 | inactive: 18.2%
55 | CSc1ccccc1NC(=O)C1CCCN(S(C)(=O)=O)C1 (stereo unspecified) | inactive: 1.01%
56 | CSc1nc(SCC(N)=O)c2c3c(sc2n1)CN(C)CC3 | inactive: -45.2%
57 | CC1(C(=O)NS(=O)(=O)c2ccccc2Cl)CCN1C(=O)CCc1ccc(Cl)cc1Cl (stereo unspecified) | inactive: -1.53%
58 | CCCCNC(=O)N1CCc2ccccc2C1 | inactive: 3.82%
59 | Cn1c(C(=O)NCc2ccccc2F)cc2oc3ccccc3c21 | inactive: 9.36%
60 | CCCn1c(SCc2ccc(C(=O)OC)o2)nc2ccccc2c1=O | inactive: 15.6%
61 | COc1ccc(C2CC(c3ccc([N+](=O)[O-])cc3)=NN2C(C)=O)cc1 (stereo unspecified) | inactive: -10.9%
62 | Cc1ccc(F)cc1C(=O)N1CCCC(C)(C(=O)NS(=O)(=O)C2CC2)C1 (stereo unspecified) | inactive: 11.8%
63 | Cc1ccc(NC(=O)c2cc(S(=O)(=O)NCCc3ccccc3)ccc2F)cc1Cl | inactive: 12.7%
64 | O=C(CN(Cc1ccccc1)C(=O)CCC(=O)Nc1ccccn1)NCc1ccc(F)cc1 | inactive: 0.449%
65 | COc1cc(OC)c(OC)cc1/C=N/NC(=O)c1ccc(CSc2nc(C)cc(C)n2)cc1 | inactive: 25.4%
66 | NC1=NC2(CCC(c3ccccc3)CC2)n2c(nc3ccccc32)N1 (stereo unspecified) | inactive: -9.05%

Row | SMILES | growth rescue (activation)
67 | COc1ccc(/C(C)=N/NC(=O)c2nnn(-c3nonc3N)c2-c2ccccc2)cc1 | inactive: 13.3%
68 | O=C(NC1CCCC1)C(c1c(F)cccc1Cl)N(C(=O)c1csnn1)C1CC1 (stereo unspecified) | inactive: 13.1%
69 | O=C(O)CSc1nnc(CNc2ccc(F)cc2)n1-c1ccccc1 | inactive: 0.093%
70 | Cc1ccc(O)c(NC(=O)c2cc(C)no2)c1 | inactive: 26.3%
71 | CCOC(=O)c1cc(CC)sc1NC(=O)COc1ccc2c(C)cc(=O)oc2c1 | inactive: 30.6%
72 | Cc1cc(C)nc(NS(=O)(=O)c2ccc(NC(=O)C3(c4ccccc4)CCCC3)cc2)n1 | inactive: 7.37%
73 | Cn1c(CO)cnc1S(=O)(=O)Cc1ccc(Cl)cc1 | inactive: 7.86%
74 | CCOc1ccc(C(=O)N(Cc2sccc2C)C2CCS(=O)(=O)C2)cc1 (stereo unspecified) | inactive: 5.37%
75 | COc1ccc(CCNC(=O)COc2ccc(N(C)S(=O)(=O)c3ccc(C)cc3)cc2)cc1OC | inactive: 3.63%
76 | Cc1ccc(NC(=O)/C(=C\c2ccco2)NC(=O)c2ccco2)cc1 | inactive: -17.2%
77 | COc1ccccc1CCNC(=O)C1CCN(C(=O)/C=C/c2ccccc2)CC1 | inactive: 22.3%
78 | COc1ccc(C(=O)NC(=S)NCc2cccnc2)cc1Cl | inactive: 17.8%
79 | COCc1ccc(CN2CCC(CO)(CC3CCCCO3)CC2)o1 (stereo unspecified) | inactive: 13.3%
80 | O=C(Nc1nc2ccccc2[nH]1)c1ccccc1 | inactive: 7.83%
81 | COc1ccc(CONc2ncnc3nonc23)cc1[N+](=O)[O-] | inactive: -11.5%
82 | CC(=O)Nc1ccc(NC(=O)c2nc(S(=O)(=O)Cc3cccc(C)c3)ncc2Cl)cc1 | inactive: 5.34%
83 | Cc1ccc(S(=O)(=O)c2cc(OC(=O)c3ccco3)ccc2OC(=O)c2ccco2)cc1 | inactive: -8.34%
84 | COc1cccc(C(c2nnnn2CC2CCCO2)N2CCN(C(=O)c3ccco3)CC2)c1OC (stereo unspecified) | inactive: -3.24%
85 | Cc1cc(OCCCC(=O)NCCN2C(=O)S/C(=C\c3cccnc3)C2=O)ccc1Cl | inactive: 5.8%
86 | COc1ccccc1NC(=O)COC(=O)CNC(=O)C1CCCCC1 | inactive: 13.6%
87 | O=c1oc2cc(O)ccc2cc1-c1nc2c(s1)CCc1ccccc1-2 | inactive: 21.9%
88 | Cc1c(Br)ccc(NC(=O)Cn2nc(-c3cccs3)ccc2=O)c1C | inactive: 22.9%

Row | SMILES | growth rescue (activation)
89 | COc1ccc(-c2csc3nc(-c4cccnc4)nc(N4CCC(C(N)=O)CC4)c23)cc1OC | inactive: -6.84%
90 | Cc1ccc(NC(=O)CSCc2ccco2)cc1 | inactive: 27%
91 | CC(O)CN1CC(O)=C(c2nc3ccccc3s2)C1=N (stereo unspecified) | inactive: 6.33%
92 | CCn1cnc2cc(NCc3ccc(Br)cc3)ccc21 | inactive: 11%
93 | Cc1ccc(NC(=O)C(=O)NCCN2CCN(C(=S)Nc3ccccc3)CC2)cc1 | inactive: 13.1%
94 | Cc1sc(NC(=O)CSc2n[nH]c(N)n2)c(C#N)c1C | inactive: -3.32%
95 | CCc1cc(CNC(=O)CCc2nnc(Cc3cccc(C)c3)o2)on1 | inactive: 2.61%
96 | CN(C)C(=O)CN1CCN(Cc2cn(C)nc2-c2ccc3c(c2)OCCO3)CC1 | inactive: 12.8%
97 | COc1cc(C(=O)N[C@@H](Cc2c[nH]c3ccccc23)C(=O)O)cc(OC)c1OC | inactive: 12.6%
98 | CON(c1nc(Cl)nc(N(C)C)n1)S(=O)(=O)c1ccc(C)cc1 | inactive: 21.9%
99 | CCOC(=O)COc1c(Cl)cc(C2NC(=S)NC(c3ccccc3)=C2C(C)=O)cc1OC (stereo unspecified) | inactive: -9.89%
100 | O=C(N/N=C/c1ccc[nH]1)c1ccncc1 | inactive: -8.54%
101 | CC(C)OC(=O)CC1C(=O)NCCN1C(=O)COc1ccc(C(C)(C)C)cc1 (stereo unspecified) | inactive: 0.725%
102 | O=C(COc1ccc(Br)cc1)NNC(=S)NC(=O)c1ccccc1[N+](=O)[O-] | inactive: -3.07%
103 | CNc1cnc(-c2cc(OC)c(OC)c(OC)c2)cn1 | inactive: 3.39%
104 | Nc1nnc(CC(=O)N/N=C/c2ccc(-c3ccc(F)cc3)o2)s1 | inactive: -1.34%
105 | CCCNC(=O)C1(C)CCCN(C(=O)COCc2ccccc2)C1 (stereo unspecified) | inactive: 3.72%
106 | Cc1ccc(-c2cn3nc(-c4ccccc4)c(-c4ccccc4)nc3n2)cc1 | inactive: 16.1%
